# Assay results from a collection of fitness landscapes (doi:10.1038/s41467-024-54723-y).
# In all, about 18,000 sequences were measured (“TetR repression strength (sort-seq, GFP reporter)”: median about 0.23, highest 2% from about 0.68 on). The list shows a part of the results.
# Target: TetR (class B, Tn10) (UniProt P04483)
# Test: TetR repression strength (sort-seq, GFP reporter) (relative to tetO2 = 1); higher = stronger repression
# Conditions: E. coli
# Summary of the method: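 Repression strength is the top bin index plus one minus the read-weighted mean bin, relative to the unaltered operator's value. A low-copy library in E. coli SIG10-MAX randomized eight operator positions between a constitutive promoter and sfGFP, with TetR expressed constitutively; cells grew 5 h at 37 °C in LB with 50 µg/mL chloramphenicol and 10^6 were FACS-sorted into 13 bins that were each Illumina-sequenced. Three independent transformations were averaged, keeping only members with ≥30 reads in all replicates and CV ≤0.5.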
# Sequence of UniProt P04483 (P04483 whole entry): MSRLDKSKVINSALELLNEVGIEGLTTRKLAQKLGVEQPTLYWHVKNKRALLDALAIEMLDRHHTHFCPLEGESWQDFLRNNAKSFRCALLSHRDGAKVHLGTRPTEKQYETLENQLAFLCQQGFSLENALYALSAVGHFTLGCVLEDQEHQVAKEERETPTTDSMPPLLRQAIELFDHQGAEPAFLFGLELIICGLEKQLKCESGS
row,Sequence,TetR repression strength
1,TCCCCATAAGTTGTTGAGA,0.311
2,TCCCCACTAGTTTCAGAGA,0.389
3,TCCCCGTGAGTAGAAGAGA,0.276
4,TCCCTGTGAGTGGGGGAGA,0.419
5,TCCCACTTAGTGACAGAGA,0.396
6,TCCCCCGGAGTGGGAGAGA,0.175
7,TCCCGAACAGTCTGGGAGA,0.427
8,TCCCAAACAGTTGTTGAGA,0.207
9,TCCCACCCAGTCAGAGAGA,0.291
10,TCCCAATTAGTCGTGGAGA,0.415
11,TCCCAGGAAGTGCAAGAGA,0.473
12,TCCCACCTAGTCTGCGAGA,0.302
13,TCCCTAAGAGTATGAGAGA,0.21
14,TCCCTAACAGTCTGAGAGA,0.182
15,TCCCCATCAGTTGTAGAGA,0.222
16,TCCCCGAAAGTTTGCGAGA,0.309
17,TCCCGGCGAGTATGTGAGA,0.364
18,TCCCAGTTAGTGAGCGAGA,0.15
19,TCCCTTCTAGTAATTGAGA,0.415
20,TCCCGTAGAGTCTTGGAGA,0.0401
21,TCCCGGGCAGTTAAGGAGA,0.196
22,TCCCGCGGAGTAGGAGAGA,0.239
23,TCCCATCAAGTTAATGAGA,0.0658
24,TCCCACAGAGTTGCCGAGA,0.315
25,TCCCGCCGAGTTGTGGAGA,0.294
26,TCCCTGTCAGTCGTAGAGA,0.514

row,Sequence,TetR repression strength
1,TCCCGTGAAGTCGGCGAGA,0.135
2,TCCCATCTAGTGAGTGAGA,0.316
3,TCCCTTAGAGTATCAGAGA,0.0706
4,TCCCTAGTAGTCTAGGAGA,0.2
5,TCCCAACTAGTAAGGGAGA,0.239
6,TCCCAATCAGTAGGAGAGA,0.185
7,TCCCGGGTAGTCGGTGAGA,0.237
8,TCCCGCAAAGTAGCGGAGA,0.301
9,TCCCGTGCAGTCAGAGAGA,0.296
10,TCCCGAGGAGTGGAGGAGA,0.184
11,TCCCTCACAGTACAGGAGA,0.234
12,TCCCAAGAAGTATGCGAGA,0.135
13,TCCCAGGGAGTACCAGAGA,0.244
14,TCCCTTGCAGTATCCGAGA,0.611
15,TCCCAGTTAGTACGGGAGA,0.387
16,TCCCATCTAGTGGAGGAGA,0.449
17,TCCCAATAAGTCGCAGAGA,0.162
18,TCCCGACGAGTGCGTGAGA,0.349
19,TCCCAGCTAGTGGGTGAGA,0.0777
20,TCCCTACTAGTAGACGAGA,0.55
21,TCCCCATGAGTCAAGGAGA,0.26
22,TCCCCATGAGTTCAGGAGA,0.181
23,TCCCGCTTAGTTGAAGAGA,0.256
24,TCCCGAAAAGTTGGAGAGA,0.389
25,TCCCGGTGAGTAACCGAGA,0.333
26,TCCCGAAGAGTAGGGGAGA,0.219

row,Sequence,TetR repression strength
1,TCCCCTTGAGTCCTCGAGA,0.426
2,TCCCTTGAAGTGTACGAGA,0.242
3,TCCCGGGGAGTGTCCGAGA,0.125
4,TCCCGTGCAGTGGTCGAGA,0.0346
5,TCCCCGACAGTGGCGGAGA,0.167
6,TCCCGATCAGTCATAGAGA,0.609
7,TCCCGAGGAGTGCCTGAGA,0.207
8,TCCCCACGAGTTAGCGAGA,0.227
9,TCCCAAACAGTAGGCGAGA,0.331
10,TCCCATATAGTTATTGAGA,0.248
11,TCCCCGGAAGTGTGCGAGA,0.201
12,TCCCCGTGAGTTGAAGAGA,0.21
13,TCCCGGAAAGTAGTTGAGA,0.133
14,TCCCGCGTAGTGTTAGAGA,0.309
15,TCCCTACGAGTTGTTGAGA,0.46
16,TCCCATCTAGTGCACGAGA,0.337
17,TCCCTTAGAGTTGTCGAGA,0.177
18,TCCCTGCTAGTGGAGGAGA,1.14
19,TCCCAACCAGTGTATGAGA,0.469
20,TCCCTGCCAGTAATCGAGA,0.313
21,TCCCAGGGAGTCACTGAGA,0.22
22,TCCCTGTTAGTAATGGAGA,0.229
23,TCCCAGGAAGTACGGGAGA,0.19
24,TCCCGCTTAGTTGGTGAGA,0.104
25,TCCCGGTAAGTACAGGAGA,0.139
26,TCCCTCGTAGTTGAAGAGA,0.157

row,Sequence,TetR repression strength
1,TCCCTATCAGTAACTGAGA,0.474
2,TCCCAGGGAGTCATGGAGA,0.135
3,TCCCATTCAGTTGCCGAGA,0.138
4,TCCCAAGTAGTATTGGAGA,0.176
5,TCCCAGGGAGTTGGGGAGA,0.111
6,TCCCGAGGAGTATCGGAGA,0.0809
7,TCCCCACCAGTGGGAGAGA,0.192
8,TCCCACAGAGTAGGCGAGA,0.169
9,TCCCCGACAGTCAGGGAGA,0.193
10,TCCCTTGCAGTTTAGGAGA,0.365
11,TCCCAGGCAGTCTTAGAGA,0.0273
12,TCCCCCGTAGTTAACGAGA,0.49
13,TCCCGGTAAGTCGCGGAGA,0.0153
14,TCCCAAAGAGTTTGTGAGA,0.0868
15,TCCCGTGTAGTTGCGGAGA,0.159
16,TCCCATGAAGTTTTGGAGA,0.207
17,TCCCGCGGAGTAGGGGAGA,0.238
18,TCCCATGAAGTAGGTGAGA,0.17
19,TCCCGTAAAGTTCTTGAGA,0.0183
20,TCCCCTCAAGTTGGGGAGA,0.292
21,TCCCCGTCAGTAGTTGAGA,0.264
22,TCCCCCTGAGTCGTCGAGA,0.255
23,TCCCCCAGAGTTTTCGAGA,0.438
24,TCCCGACAAGTTGACGAGA,0.119
25,TCCCCACCAGTAATCGAGA,0.474
26,TCCCGTCGAGTGGCAGAGA,0.125

row,Sequence,TetR repression strength
1,TCCCCCAGAGTAATGGAGA,0.337
2,TCCCGACGAGTTGAGGAGA,0.16
3,TCCCCGCTAGTGCATGAGA,0.48
4,TCCCGATGAGTGTTTGAGA,0.433
5,TCCCGGTAAGTCGAGGAGA,0.153
6,TCCCGCGCAGTGAGAGAGA,0.137
7,TCCCTCATAGTTCATGAGA,0.0965
8,TCCCTTGCAGTCAATGAGA,0.251
9,TCCCGGGCAGTAGTAGAGA,0.401
10,TCCCGGGTAGTACTCGAGA,0.0504
11,TCCCGTCGAGTAGTTGAGA,0.475
12,TCCCCGCCAGTTATCGAGA,0.368
13,TCCCCAATAGTGCCCGAGA,0.304
14,TCCCGCAGAGTAGAGGAGA,0.21
15,TCCCTACTAGTGAGCGAGA,0.306
16,TCCCCCTGAGTGGTAGAGA,0.242
17,TCCCCTTCAGTCTCGGAGA,0.104
18,TCCCGGATAGTGTGCGAGA,0.204
19,TCCCTTCCAGTCGGGGAGA,0.207
20,TCCCCCGAAGTGTGTGAGA,0.0538
21,TCCCCTACAGTGCCAGAGA,0.269
22,TCCCGTATAGTGGCAGAGA,0.198
23,TCCCTCTCAGTAATAGAGA,0.686
24,TCCCGTTAAGTAGCGGAGA,0.503
25,TCCCGCCAAGTGAGTGAGA,0.25
26,TCCCCTAGAGTCAACGAGA,0.368

row,Sequence,TetR repression strength
1,TCCCGGTCAGTGATCGAGA,0.684
2,TCCCACGGAGTAGCAGAGA,0.0379
3,TCCCGGTTAGTCTTGGAGA,0.317
4,TCCCGATAAGTTGATGAGA,0.19
5,TCCCGACAAGTGGCCGAGA,0.258
6,TCCCCACAAGTACGTGAGA,0.199
7,TCCCGTGGAGTCTCGGAGA,0.338
8,TCCCCTACAGTGACTGAGA,0.305
9,TCCCTAACAGTTTTCGAGA,0.335
10,TCCCAAAGAGTATATGAGA,0.114
11,TCCCGTTTAGTGCGAGAGA,0.217
12,TCCCTGTGAGTGTGGGAGA,0.238
13,TCCCATTCAGTTTGCGAGA,0.243
14,TCCCACGGAGTCGCGGAGA,0.172
15,TCCCCAGTAGTTGGCGAGA,0.0887
16,TCCCTAACAGTGGAAGAGA,0.299
17,TCCCAAAAAGTGAGCGAGA,0.128
18,TCCCGGGAAGTTCGGGAGA,0.249
19,TCCCTTTTAGTAAGAGAGA,0.277
20,TCCCGCCCAGTTGGCGAGA,0.179
21,TCCCTTGAAGTGGCAGAGA,0.107
22,TCCCGAGCAGTGGCTGAGA,0.347
23,TCCCTCTGAGTCACAGAGA,0.529
24,TCCCTAGCAGTGCCAGAGA,0.637
25,TCCCGTGTAGTAGTAGAGA,0.269
26,TCCCTACGAGTGTCAGAGA,0.194

row,Sequence,TetR repression strength
1,TCCCCCTGAGTCTAAGAGA,0.278
2,TCCCCTTTAGTGGGAGAGA,0.273
3,TCCCGTGGAGTAGCGGAGA,0.16
4,TCCCGGGCAGTGATTGAGA,0.341
5,TCCCGTGTAGTGGCGGAGA,0.168
6,TCCCGCGAAGTGCGAGAGA,0.142
7,TCCCGTACAGTATCTGAGA,0.222
8,TCCCTGTCAGTGTTAGAGA,0.51
9,TCCCGCGGAGTGATGGAGA,0.164
10,TCCCGCAAAGTAAACGAGA,0.00864
11,TCCCGGCGAGTGCCGGAGA,0.193
12,TCCCGCTCAGTGGGCGAGA,0.246
13,TCCCTCTTAGTCGGCGAGA,0.197
14,TCCCAGGGAGTTTTGGAGA,0.197
15,TCCCTGCCAGTTTACGAGA,0.197
16,TCCCTGTAAGTAGAAGAGA,0.214
17,TCCCGTCTAGTTTCGGAGA,0.153
18,TCCCATAAAGTAGCGGAGA,0.154
19,TCCCCTTTAGTGTGTGAGA,0.238
20,TCCCCATCAGTGTTGGAGA,0.0933
21,TCCCAGCAAGTGGGAGAGA,0.221
22,TCCCGTCAAGTAATAGAGA,0.331
23,TCCCTATCAGTCAAAGAGA,0.636
24,TCCCGAGTAGTCTCTGAGA,0.246
25,TCCCGTCTAGTGTGCGAGA,0.259
26,TCCCATGTAGTGAAGGAGA,0

row,Sequence,TetR repression strength
1,TCCCCAAAAGTGGGGGAGA,0.196
2,TCCCAGACAGTGCTCGAGA,0.855
3,TCCCCTTGAGTAAGGGAGA,0.263
4,TCCCGTTTAGTATAAGAGA,0.104
5,TCCCGTTCAGTCCGGGAGA,0.184
6,TCCCATCCAGTCCCGGAGA,0.027
7,TCCCAATTAGTGGCTGAGA,0.152
8,TCCCGTGTAGTTTACGAGA,0.0829
9,TCCCAGGAAGTGCGGGAGA,0.309
10,TCCCGTACAGTGTGTGAGA,0.286
11,TCCCTATAAGTGTCTGAGA,0.575
12,TCCCGAAAAGTTGTAGAGA,0.261
13,TCCCTGCGAGTTTTGGAGA,0.457
14,TCCCGGTTAGTAACTGAGA,0.207
15,TCCCAATAAGTGATTGAGA,0.408
16,TCCCTTCGAGTCTGGGAGA,0.384
17,TCCCTGCAAGTCCCGGAGA,0.356
18,TCCCCCATAGTCGGCGAGA,0.134
19,TCCCGGGAAGTCGGTGAGA,0.114
20,TCCCATTCAGTTCTTGAGA,0.231
21,TCCCCAACAGTCGCTGAGA,0.499
22,TCCCCACCAGTTGTGGAGA,0.196
